Data published in patent CN116173202A (BEIJING DONGFANG BIOTECH CO LTD, dated 2023).

Columns and labels:
[1] = biological target: T1, 人单核细胞白血病细胞(THP-1)表面LILRB4 (human, UniProt Q8NHJ6 22-448); experiment: cell-based or functional assay
[2] = biological target: T1, 人单核细胞白血病细胞(THP-1)表面LILRB4; experiment: cell-based or functional assay; remark: listed apart in the source

IC50, 生物学活性检测(报告基因), THP-1-NF-κB-Luc cells with ApoE [1]: 0.83 µg/mL
IC50, 抑制THP-1分泌ARG1 (arginase activity in supernatant, ApoE 0.5μg/mL) [2]: 30.6 µg/mL
B1: 人源化抗体HB-Ⅲ (human IgG1 / human Ck) (antibody)
heavy: QVQLVQSGAEVKKPGASVKVSCKASGYTFTNYWMHWVRQAPGQGLEWIGEINPSNGRTNYNEKFKTRATLTVDTSTSTAYMELSSLRSEDTAVYYCARWGQLGLREGYYAVDYWGQGTLVTVSSASTKGPSVFPLAPSSKSTSGGTAALGCLVKDYFPEPVTVSWNSGALTSGVHTFPAVLQSSGLYSLSSVVTVPSSSLGTQTYICNVNHKPSNTKVDKRV[letters of human IgG1 Fc with changes omitted]
light: DIVMTQSPSSLSASVGDRVTITCRASQDISNYLNWYQQKPGGAVKLLIYYTSRLHSGVPSRFSGSGSGTDYTFTISSLQPEDIATYFCQQGNTLPPTFGGGTKVEIKRTVAAPSVFIFPPSDEQLKSGTASVVCLLNNFYPREAKVQWKVDNALQSGNSQESVTEQDSKDSTYSLSSTLTLSKADYEKHKVYACEVTHQGLSSPVTKSFNRGEC
